Measured values published in patent US20200010850A1, “EFFICIENT CELL FREE PRODUCTION OF PAPI[…] […] VECTORS” (The USA, as represeented by the Secretary, Dept. of Health …, priority 2017, published 2020).

Columns and labels:
HPV45 PsVs = test: Heparin, serum neutralization and entry inhibitor assay on HPV45 PsVs (Luc/GFP plasmid); assay type: cell-based; conditions: 293TT cells; 10 μM dec-RVKR-cmk, 20 mM NH4Cl, 300 nM compound XXI, 10 μM CsA; 72 h
HPV16 PsVs = test: Heparin, antibody neutralization and entry inhibitor assay on HPV16 PsVs (Luc/GFP plasmid); assay type: cell-based; conditions: 293TT cells; 10 μM dec-RVKR-cmk, 20 mM NH4Cl, 300 nM compound XXI, 10 μM CsA; 72 h

Compound	inhibition of infection by entry inhibitors, defined versus standard PsVs (HPV45 PsVs)	inhibition of infection by entry inhibitors, defined versus standard PsVs (HPV16 PsVs)
Cl.N [NH4Cl]	inhibited defined-produced and standard PsVs infection of 293TT to the same extent	inhibited defined-produced and standard PsVs infection of 293TT to the same extent
C[C@H](NC(=O)Cc1cc(F)cc(F)c1)C(=O)N[C@H]1N=C(c2ccccc2)c2ccccc2N(C)C1=O [compound XXI, (S,S)-2-[2-(3,5-Difluorophenyl)-acetylamino]-N-(1-methyl-2-oxo-5-phenyl-2,3-dihydro-1H-benzo[e][1,4]diazepin-3-yl)-propionamide]	inhibited defined-produced and standard PsVs infection of 293TT to the same extent	inhibited defined-produced and standard PsVs infection of 293TT to the same extent
Decanoyl-RVKR-chloromethilketone [dec-RVKR-cmk]	–	inhibited defined-produced and standard PsVs infection of 293TT to the same extent
